Our source for the binding values is article PMC5718245.

By UniProt entry, the sequences of proteins in these tests, tags left out. Where a name states a change or a piece, a line headed by the entry shows the natural chain unless it says otherwise.
UniProt Q792Q4: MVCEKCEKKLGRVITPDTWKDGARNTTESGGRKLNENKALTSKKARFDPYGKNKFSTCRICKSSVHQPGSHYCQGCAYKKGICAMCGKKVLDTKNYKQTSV

Assay [1] concerns the target FL myc-tagged SAP97 (synapse associated protein of 97 kDa) (UniProt Q62696). Kind of assay: co-IP; HEK293 cells overexpressing both proteins; 1% NP-40 lysis buffer; SAP97 immunoprecipitated with myc IgG on DynaBeads Protein G (Fig. 1D); immunoblot.
For assay [2], the target named is FL HA-tagged CRIPT (cysteine-rich interactor of PDZ3) (UniProt Q792Q4). Kind of assay: co-IP; HEK293 cells overexpressing both proteins; 1% NP-40 lysis buffer (25 mM Tris-HCl pH 7.4, 150 mM NaCl, 1 mM EDTA, 5% glycerol); antibody on DynaBeads Protein G, 1 h at RT; IP with anti-HA in Fig. 1B, IP antibody of Fig. 1C not stated; immunoblot.
Assay [3] has as its target endogenous CRIPT (rat (endogenous in mixed spinal cord cultures)) (UniProt Q792Q4). In words: co-IP; lysates of DIV14 rat mixed spinal cord cultures, both proteins endogenous; IP with anti-CRIPT IgG on DynaBeads Protein G; blot with SAP97 and CRIPT antibodies together.

Results are given in words; binding and its absence hold for the method and conditions named. Binding seen in cells or lysates may run through a third protein. Some results given as binding are weak or reduced against the parent protein; the word gives no strength.

Turning to “FL CRIPT V101A (from UniProt Q792Q4 1-101)”, the binding entry in assay [1] was “no binding”.
Take “FL HA-tagged CRIPT (cysteine-rich interactor of PDZ3) (from UniProt Q792Q4 1-101)”: the binding entry in assay [1] is reported as “binds”.
On to “FL myc-tagged SAP97 (synapse associated protein of 97 kDa) (from UniProt Q62696 1-911)”, for which the binding result in assay [2] is given as “binds”.
For “endogenous SAP97 (from UniProt Q62696 1-911)”, in assay [3], the binding result is recorded as “binds”.
For the substance “myc-tagged FL SAP97 with mutations in the PDZ2 domain (K323A, K326A) (from UniProt Q62696 1-911)”, the binding result in assay [2] is recorded as “binds”.
In the case of “myc-tagged FL SAP97 with mutations in the PDZ3 domain (H469A, R470A) (from UniProt Q62696 1-911)”, the binding entry in assay [2] is listed as “no binding”.
